Reference: PubChem BioAssay AID2546 (National Center for Advancing Translational Sciences (NCATS), 2010)
Among all 310,000 compounds or so, about 11,000 (3.5%) were called active. Inconclusive results, whose numbers are uncertain, are shown with a selection of clear calls. The call rests on the fitted dose curve; in most records, active means well fitted inhibition curve with a large enough effect; inconclusive means small, poorly fitted or top-dose-only effect, or effect the other way; inactive means flat fitted curve, though single readings scatter. Potencies of inconclusive entries are left out as doubtful fits.

test: VP16 counterscreen qHTS for inhibitors of ROR gamma transcriptional activity; conditions: Drosophila S2 Gal4-VP16 UAS-luciferase, luminescence, 20 h; activity, negative = inhibition: at 53.6 µM (top of the series);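 further: Gal4-VP16 expression switched on by copper sulfate through the metallothionein promoter; nearly all actives have a fitted effect of over 50% in size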
On the % scale 0 is the no-effect control and ±100 the full control effect; potency means the concentration at half of the fitted maximal effect; tags describe the fitted curve by direction and shape.

SMILES	activity, negative = inhibition	Potency
CCOC(=O)c1nnn2c1nc(N1CCOCC1)c1ccccc12	inactive: -1.29%	–
CCN1CCN(CC(=O)N2CCCC(C(=O)c3ccc(Oc4ccccc4)cc3)C2)CC1 (stereo unspecified)	–	inconclusive [inhibitor, single point]
CN1CCN(NS(=O)(=O)c2ccc(Cl)s2)CC1	inactive: 0.196%	–
CC(C)(C)c1cc(NC(=O)c2cccc([N+](=O)[O-])c2)no1	–	inconclusive [activator, full curve, poor fit]
CCOc1ccc(C(=O)NC(=S)Nc2ccc(NC(=O)C(C)C)cc2)cc1[N+](=O)[O-]	inactive: 2.81%	–
CCc1ccc(-c2nc(NC(=S)NC(=O)c3cccs3)sc2C)cc1	–	active: 3.16 µM
S=C(NCCSCc1ccccc1Cl)Nc1ccccc1	–	active: 3.98 µM
COc1ccccc1NC(=S)NC(=O)C1CC1	–	inconclusive [inhibitor, single point]
CCc1ccc(S(=O)(=O)/N=C2\C=CC(=O)c3ccccc32)cc1	–	inconclusive [inhibitor, single point]
Cc1cccc(N2C(=O)/C(=C/c3cccnc3)SC2=S)c1	–	inconclusive [inhibitor, single point]
Cc1nc(SCC(=O)c2ccccc2)c(C#N)c(-c2ccco2)c1C(=O)NCc1ccco1	–	active: 5.01 µM
CSc1cccc(NS(=O)(=O)c2ccc(-c3coc(C)n3)cc2)c1	–	inconclusive [inhibitor, single point]
CCN(CC)c1ccc(/C=N/n2nnnc2N)c(O)c1	–	inconclusive [activator, single point]
COc1ccc(CNc2cc(C)nc3ncnn23)c(OC)c1	–	active: 11.2 µM
O=C(O)c1cc([N+](=O)[O-])ccc1C(=O)Nc1ccccc1	inactive: 0.072%	–
O=C(COc1ccc(S(=O)(=O)NC2CCCCC2)cc1)N1CCN(c2ccc(F)cc2)CC1	–	inconclusive [inhibitor, single point]
Cc1cccc(-c2nnc(SCC(=O)NC3CC3)n2C)c1	–	inconclusive [inhibitor, full curve]
COc1ccc(NC(=O)C2CCN(S(=O)(=O)c3ccc4[nH]c(=O)oc4c3)CC2)c(OC)c1	inactive: -0.696%	–
Fc1ccc(-n2cc(-c3ccccc3)c3c(N4CCOCC4)ncnc32)cc1	inactive: -14.9%	–
CCOC(=O)C(N)CSC1CC(=O)N(CCc2ccccc2)C1=O (stereo unspecified)	–	inconclusive [inhibitor, single point]
CCc1n[nH]c(=S)n1/N=C/c1ccccc1OCc1ccc(Cl)cc1	inactive: -18.4%	–
CCCCCC(=O)N1CCN(c2ccc(C(C)=O)cc2F)CC1	–	inconclusive [inhibitor, single point]
COc1cc(/C=C/C(=O)c2ccc3c(c2)OCCO3)cc(Br)c1OCC(=O)N(C)C	–	inconclusive [inhibitor, single point]

SMILES	activity, negative = inhibition	Potency
O=C(CCC(=O)N1CCN(S(=O)(=O)c2ccc3ccccc3c2)CC1)NCC(F)(F)F	inactive: 3.2%	–
Cc1cccc(/C=N/NC(=O)c2cc(C)nc3ccccc23)n1	–	inconclusive [inhibitor, single point]
O=C(c1ccncc1)N1CCCC(N2CCN(c3ccc(F)cc3)CC2)C1 (stereo unspecified)	–	inconclusive [inhibitor, single point]
COc1cccc(/C=N/Nc2nc(Nc3ccccc3)nc(-n3nc(C)cc3C)n2)c1O	–	active: 2.51 µM
CCN1C(=O)C(CC(=O)Nc2cccc(C(C)=O)c2)S/C1=N\c1ccccn1 (stereo unspecified)	–	inconclusive [inhibitor, partial curve, poor fit]
NNC(=O)c1cc(C23CC4CC(CC(C4)C2)C3)nc2ccccc12	–	inconclusive [inhibitor, single point]
COC(=O)c1ccsc1NC(=O)CCc1ccccc1	–	inconclusive [inhibitor, single point]
COC(=O)c1ccccc1NC(=O)/C=C/c1ccco1	–	inconclusive [inhibitor, single point]
NC(=O)c1cccnc1Nc1ccccc1F	–	inconclusive [inhibitor, single point]
Cc1ccc2nc3c(cc2c1)c(NC(=O)c1ccccn1)nn3CC(C)C	–	active: 5.01 µM
Cc1ccc2c(c1)C1OCCC1C1N2C(=O)C2C(C(=O)O)C3C=CC21O3 (stereo unspecified)	–	inconclusive [inhibitor, partial curve]
Cc1ccc2nc(C)/c(=N\O)c(C)nc2c1	inactive: -1.8%	–
O=C(NNC(=O)c1ccc(Oc2ccc(C3SCCS3)cc2)o1)c1ccc(Cl)cc1	–	inconclusive [inhibitor, single point]
Cc1ccccc1OCC(=O)N/N=C/c1ccc(N2CCOCC2)o1	–	active: 6.31 µM
CC(C)Nc1nc(Cl)nc(Nc2ccccc2)n1	–	inconclusive [activator, full curve]
N#C/C(=C/c1ccccc1[N+](=O)[O-])C(=O)NCc1ccco1	–	inconclusive [inhibitor, single point]
Cc1ccc(S(=O)(=O)NCc2ccc(N3CCN(C(=O)OC(C)(C)C)CC3)cc2)cc1	–	inconclusive [inhibitor, single point]
Cc1cc(C)c(NC(=S)NCCCSC2CCCCC2)c(C)c1	–	inconclusive [inhibitor, single point]
COc1cccc(C2=NOC(C(=O)NCc3ccc(F)cc3)C2)c1 (stereo unspecified)	inactive: 8.38%	–
Cc1cc(N2CCN(C)CC2)nc2ccc(NC(=S)N3CCN(c4ccc(Cl)cc4)CC3)cc12	–	inconclusive [inhibitor, single point]
Cc1ccc(OCC(=O)Nc2cccc(-c3nnc(-c4ccccc4)o3)c2)cc1	–	inconclusive [inhibitor, single point]
C=CCN(c1ccc(C(=O)Nc2ccc3c(c2)n(C)c(=O)n3C)cc1)S(C)(=O)=O	inactive: 26.4%	–
CCOC(=O)N1CCN(C(=O)c2ccc(Cn3c(=S)[nH]c4cc5c(cc4c3=O)OCO5)cc2)CC1	–	inconclusive [inhibitor, single point]
